Data taken from PubChem BioAssay AID485367 (National Center for Advancing Translational Sciences (NCATS), 2010).
Among all 330,000 compounds or so, about 560 (0.17%) were called active. The inconclusive results got no clear call from the source; some entries with a clear call stand among them for comparison. The call rests on the fitted dose curve; in most records, active means well fitted inhibition curve with a large enough effect; inconclusive means small, poorly fitted or top-dose-only effect, or effect the other way; inactive means flat fitted curve, though single readings scatter. No potency is given beside an inconclusive call; the fits are too rough.

molecular target: ATP-dependent 6-phosphofructokinase (Trypanosoma brucei brucei) (UniProt O15648); assay: qHTS Assay to Find Inhibitors of T. brucei phosphofructokinase; further: nearly all actives have a fitted effect of over 60% in size; details: T. brucei PFK, ADP-Glo luminescence; series mostly up to 57.5 µM
Procedure, shortened: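 Compounds were pin-transferred as a titration series up to 57 uM into substrate buffer (0.5 mM F6P, 0.1 mM ATP, pH 8.0), then 1.25 nM PFK was added and reactions ran 45 min before ADP-Glo detection.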
Potency means the concentration at half of the fitted maximal effect; tags describe the fitted curve by direction and shape.

Sequence of UniProt O15648 (O15648 whole entry, looked up): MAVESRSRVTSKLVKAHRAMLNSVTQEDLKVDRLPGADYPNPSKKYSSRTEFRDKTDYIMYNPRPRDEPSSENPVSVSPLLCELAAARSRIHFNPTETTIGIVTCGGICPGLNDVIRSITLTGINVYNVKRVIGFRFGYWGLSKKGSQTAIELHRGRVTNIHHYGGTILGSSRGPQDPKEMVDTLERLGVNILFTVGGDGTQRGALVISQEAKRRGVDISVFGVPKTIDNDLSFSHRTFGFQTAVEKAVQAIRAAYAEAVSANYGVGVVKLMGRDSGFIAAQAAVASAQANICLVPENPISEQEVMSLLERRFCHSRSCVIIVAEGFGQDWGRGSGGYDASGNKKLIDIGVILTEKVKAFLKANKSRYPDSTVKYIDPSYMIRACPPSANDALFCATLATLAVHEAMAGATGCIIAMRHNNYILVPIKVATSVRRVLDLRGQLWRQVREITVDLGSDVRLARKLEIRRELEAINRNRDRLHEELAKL

Row | SMILES | Potency
1 | CN(CC(=O)Nc1c(Cl)cccc1Cl)C(=O)Cc1ccc2c(c1)CCC2 | inconclusive [falling, single point]
2 | O=c1ccnc(Nc2ccc(Cl)cc2)[nH]1 | inconclusive [falling, partial curve]
3 | CCC(C)NC(=O)c1ccc(CSc2nc3ccncc3n2Cc2ccc(F)cc2)cc1 (centres undefined) | inconclusive [falling, single point]
4 | O=c1[nH][nH]c2c(N=Cc3ccccc3O)ccc(F)c12 | inconclusive [falling, single point]
5 | Cc1ccc(S(=O)(=O)/N=C2/C=C(Sc3ncn[nH]3)C(=O)c3ccccc32)cc1 | inconclusive [falling, single point]
6 | Cc1nn(C(C)C(=O)NC2C(=O)N3C(C(=O)O)=C(CSc4nnnn4C)CSC23)cc1Cl (centres undefined) | inconclusive [falling, single point]
7 | O=C(O)c1ccc(COc2ccc(CO)cc2Cl)cc1 | inactive
8 | CN(C)c1ccc(Nc2ccc([N+](=O)[O-])cn2)cc1 | inactive
9 | CCOc1ccc(OCC)c(NC(=O)C2CCN(S(=O)(=O)c3ccc4c(c3)CC(C)N4C(C)=O)CC2)c1 (centres undefined) | inactive
10 | CN(C)c1ccc(C(=O)Nc2ccc(S(=O)(=O)NC3=NCCCCC3)cc2)cc1 | inconclusive [activator, single point]
11 | CNC(=S)N/N=C/c1c(C)c(C(=O)c2ccc(F)cc2)n2ccccc12 | inactive
12 | CCCCN(CCCC)S(=O)(=O)c1ccc(NC(=O)Cc2cccs2)cc1 | inconclusive [falling, single point]
13 | Cc1cccc(N2CCN(CC(=O)NCc3ccccc3)CC2)c1C | inactive
14 | NS(=O)(=O)c1cccc(NC(=O)Cc2ccc(Cl)c(Cl)c2)c1 | active: 6.01 µM
15 | CCOc1ccccc1NC(=O)CCS(=O)(=O)c1ccc(Br)cc1 | inconclusive [falling, single point]
16 | Cc1ccc(Cn2c(/C=C/c3ccco3)nc3ccccc32)cc1 | inconclusive [falling, single point]
17 | COc1cc2[nH]c(=S)n(CC3CCCO3)c(=O)c2cc1OC (centres undefined) | inconclusive [falling, partial curve, poor fit]
18 | O=C(CN1C(=O)NC2(CCCCC2)C1=O)Nc1ccc(Cl)c(S(=O)(=O)N2CCOCC2)c1 | inconclusive [falling, single point]
19 | COc1cc(/C=C2\C(=N)N3N=CSC3=NC2=O)ccc1OS(=O)(=O)c1ccccc1 | inactive
20 | COc1ccc(N=C(NN)c2ccc3ccccc3n2)cc1 | inconclusive [falling, partial curve]
21 | COc1ccc(-c2csc(NNC3=NCCCCC3)n2)cc1 | inconclusive [falling, single point]
22 | O=C(CSc1ccc(Cl)cc1)N/N=C/c1cccnc1 | inconclusive [falling, partial curve]

Row | SMILES | Potency
23 | CC(=O)c1ccc(OCC(O)CN2CCN(CCN3C(=O)c4cccc5cccc(c45)C3=O)CC2)cc1 (centres undefined) | inactive
24 | Cc1cc(OC(F)F)ccc1NC(=O)Nc1ccc([N+](=O)[O-])cc1 | inconclusive [falling, partial curve]
25 | CCOC(=O)c1cnc(-n2[nH]c(C)c(Cc3ccccc3)c2=O)[nH]c1=O | inconclusive [falling, single point]
26 | O=c1ccsn1Cc1ccccc1 | active: 10.7 µM
27 | CCOC(=O)c1sc(NC(=O)c2ccc(S(=O)(=O)N3CCCCC3)cc2)nc1-c1ccccc1 | inconclusive [activator, single point]
28 | COc1cnc(SCc2ccc(Cl)c(Cl)c2)nc1Cl | active: 26.9 µM
29 | O=[N+]([O-])c1ccc2nc(-c3ccccc3)n(OCc3ccc(Cl)cc3)c2c1 | inconclusive [falling, single point]
30 | CN1CCN(C2=C(Cl)C(=O)C(c3cnc(N4CCCCC4)s3)=C(Cl)C2=O)CC1 | inconclusive [falling, single point]
31 | CCCn1nc(C(=O)NNC(=O)c2cccc(S(=O)(=O)NC(C)C)c2)c2ccccc2c1=O | inactive
32 | CC(=O)OCCCNc1cc(SCc2ccco2)c2nonc2c1[N+](=O)[O-] | inconclusive [falling, single point]
33 | Cc1ccc(NC(=O)c2cc(N3C(=O)C=CC3=O)ccc2N2CCOCC2)cc1 | inconclusive [falling, single point]
34 | COc1ccc(N(C(=O)c2snc(C(N)=O)c2N)C(C(=O)NC2CCCC2)c2ccc(OC)c(OC)c2)cc1 (centres undefined) | inactive
35 | COc1ccc(C2NC(=S)N3C(c4ccc(OC)cc4)NC(=S)N23)cc1 (centres undefined) | inactive
36 | NC(=NCc1ccc2c(c1)OCO2)NC(=O)c1ccccc1 | inconclusive [falling, partial curve]
37 | COc1ccc(S(=O)(=O)Nc2cc(Sc3ncn[nH]3)c(O)c3ccccc23)cc1 | inconclusive [falling, single point]
38 | COc1cc(/C=C(/C#N)C(=O)Nc2ccccc2)ccc1OCc1ccc(C(=O)O)cc1 | inactive
39 | CCCCN(CC)CCCNC(=S)Nc1ccc2nc3n(c(=O)c2c1)CCCCC3 | inconclusive [falling, single point]
40 | N#CC(C#N)=C1NC(N)=C(C#N)C(c2ccccc2)=C1C#N | inconclusive [falling, partial curve, poor fit]
41 | CCN(CC(=O)Nc1c(F)cccc1F)C(=O)/C=C/c1ccc2ccccc2n1 | inconclusive [falling, full curve]
42 | Cc1cc(/C=C\c2nc(O)c([N+](=O)[O-])c(=O)[nH]2)c(C)n1-c1ccccc1 | inactive
43 | CC(C(=O)N1CCCC1)N1CCN(S(=O)(=O)c2ccccc2)CC1 (centres undefined) | inconclusive [falling, single point]
44 | CCOc1ccc(CN2CCN(Cc3cnc(-c4ccccc4)s3)CC2CCO)cc1 (centres undefined) | inconclusive [falling, single point]
